In all, about 110,000 compounds were measured (“z-score”: median about -0.1, highest 2% from about 2 on). The list shows a part of the results. Activity calls are given as the source filed them.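 How the source made its calls: active means z-score in the third read window above 3 or below -3; inactive means the rest.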
target: Metabotropic glutamate receptor 8 (Rattus norvegicus) (UniProt P70579); assay: rat mGluR8 modulators via GIRK flux, primary screen, cell-based, thallium flux, HTS (AID 488969); conditions: HEK293 rat mGluR8, GIRK (G protein-gated inwardly rectifying potassium channel) thallium flux, FluoZin2; at 10 µM; stronger effect = higher value; submaximal glutamate (EC20) added with thallium
Chain of UniProt P70579 (P70579 whole entry, looked up): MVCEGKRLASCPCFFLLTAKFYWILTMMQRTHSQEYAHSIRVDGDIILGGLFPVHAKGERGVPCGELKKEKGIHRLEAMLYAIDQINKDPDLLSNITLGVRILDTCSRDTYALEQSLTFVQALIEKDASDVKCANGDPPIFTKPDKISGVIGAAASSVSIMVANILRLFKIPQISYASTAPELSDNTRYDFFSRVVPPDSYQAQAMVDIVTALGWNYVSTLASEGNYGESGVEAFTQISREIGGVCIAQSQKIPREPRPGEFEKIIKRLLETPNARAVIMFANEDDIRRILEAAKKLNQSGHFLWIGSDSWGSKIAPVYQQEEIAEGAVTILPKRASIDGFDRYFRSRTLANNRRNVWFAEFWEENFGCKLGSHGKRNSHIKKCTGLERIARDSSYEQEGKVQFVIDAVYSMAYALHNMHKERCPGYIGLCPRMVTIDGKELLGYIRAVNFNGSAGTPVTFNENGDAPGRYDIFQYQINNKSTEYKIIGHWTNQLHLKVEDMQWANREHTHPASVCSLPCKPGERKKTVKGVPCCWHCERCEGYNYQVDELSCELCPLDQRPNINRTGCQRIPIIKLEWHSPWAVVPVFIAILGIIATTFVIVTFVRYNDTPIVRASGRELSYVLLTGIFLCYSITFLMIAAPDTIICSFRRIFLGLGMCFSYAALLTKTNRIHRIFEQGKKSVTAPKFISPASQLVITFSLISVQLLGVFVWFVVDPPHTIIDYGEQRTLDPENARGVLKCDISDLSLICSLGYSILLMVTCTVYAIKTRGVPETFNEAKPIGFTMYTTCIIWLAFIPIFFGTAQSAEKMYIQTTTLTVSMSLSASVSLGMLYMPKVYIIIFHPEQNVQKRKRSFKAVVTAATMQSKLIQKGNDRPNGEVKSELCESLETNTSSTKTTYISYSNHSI

SMILES	z-score
COc1ccccc1CNC(=O)c1cnn2c(C(F)F)cc(C)nc12	-1.25
O=C(CN1CCN(c2ccc(F)cc2)CC1)Nc1ccc(-n2cnnn2)cc1	0.597
COc1ccc(NC(=O)N(CCc2ccccc2)Cc2cc3c(C)cc(C)cc3[nH]c2=O)cc1	0.0539
Cc1ccc(C=C2C(=O)c3ccccc3C2=O)s1	-0.109
Cc1ccc(C2CC(=O)NC3=C2C(=O)CCC3)cc1Br (centres undefined)	-1.54
Nc1nnc(CCN2C(=O)CSC2=O)s1	0.0801
Nc1ccc2nc(CCc3ccccc3)[nH]c2c1	-0.112
CC(C)C(=O)NC(NC(=S)Nc1cccc2cccnc12)C(Cl)(Cl)Cl (centres undefined)	-0.0128
CCOC(=O)C1C(=O)NC(SCC(=O)OC)=C(C#N)C1c1ccccc1OCC (centres undefined)	-1.54
Cc1ccc(C)n1/N=C1/NC(=O)CS1	-0.196
CC1CN(C(=O)CSc2ncnc3sccc23)CC(C)O1 (centres undefined)	0.339
O=C1C(=C(O)c2ccccc2)C(=O)c2ccccc21	-0.164
COc1cccc(/C=N/NC(=O)c2cc3cc([N+](=O)[O-])ccc3s2)c1O	0.0962
C#CC[N+](C)(C)CCCCCCCC	0.0327
O=C1C(c2ccnc3ccccc23)=C(O)c2ccccc21	0.546
O=C(N/N=C/C(Cl)=C\c1ccccc1)c1cnccn1	-0.148
Cc1ccc2[nH]c(SCC(=O)N3CCOCC3)nc2c1C	-0.206
CCc1ccc(N(CC(=O)NC)S(C)(=O)=O)cc1	0.0579
CC(C)NS(=O)(=O)c1ccc(NC(=O)NC2CCCCC2)cc1	0.0764
COC(=O)C1=C(C)N=C2SC(C#N)=C(N)N2C1c1ccc(OCc2ccccc2)cc1 (centres undefined)	0.149
CC1=CCC2COC(c3ccc[n+](Cc4ccccc4)c3)C1C2 (centres undefined)	-0.297
COc1cccc(OCC(=O)NN=C2c3ccccc3-c3ccccc32)c1	0.226
CC(=O)c1ccc(NC(=O)Nc2ccc3c(c2)N(C)C(=O)CS3)cc1	-0.385

SMILES	z-score
CCS(=O)(=O)N1CCCC(C(=O)NCc2ccc(C)cc2)C1 (centres undefined)	0.346
Cc1ccc(S(=O)(=O)Cn2nnnc2C(CC(C)C)N2CCN(c3ccccc3)CC2)cc1 (centres undefined)	-0.0547
Cc1c(C(=O)NCc2cccnc2)sc2ncn(CC(=O)N3CCCCC3C)c(=O)c12 (centres undefined)	0.148
COC(=O)C1(O)CC(CC(C)C)=NN1C(=O)c1ccccc1 (centres undefined)	1.39
CCOC(=O)c1cnn(-c2ncnc3c2cnn3Cc2ccccc2)c1N	-0.248
COc1ccc(C(CC(=O)Nc2ccc(C)cc2)NC(=O)C(F)(F)F)cc1 (centres undefined)	-0.177
CCOc1ccc(/C=C/C(=O)C(C(N)=O)=C2SCCS2)cc1	-0.0893
Cc1ccc(Oc2nsnc2N2CCOCC2)cc1	-0.488
Cc1ccc(C(=O)Nc2onc(C)c2C#N)cc1	-0.067
CCCCC(=O)Nc1ccc(C(=O)N2CCCC(C(=O)OCC)C2)cc1 (centres undefined)	-0.0379
Cc1nn(-c2ccccc2)c(Cl)c1/C=N/NC(=O)c1ccc(CNc2ccccc2)o1	-2.26
COc1ccccc1C1CN(c2ccccc2)N=C1c1cccs1 (centres undefined)	0.853
Cc1ccnc(N/N=C/c2ccco2)n1	-0.224
COCCNC(=O)CSc1ncnc2sccc12	-0.294
Cc1cc(NC(=O)CCC2CCCC2)no1	-0.12
CCCOc1ccc(OCC(=O)c2[nH]c(C)c(C(C)=O)c2C)cc1	0.149
O=C(NC1CCS(=O)(=O)C1)N1CCCCC1 (centres undefined)	0.0966
CCCNC(=O)C/C(C)=N/NC(=O)COc1ccc(C)cc1Br	-0.101
Cc1ccc(-n2c(C)nc3oc4ccccc4c(=O)c3c2=O)cc1	-0.331
O=C1/C(=C/c2cccc(F)c2)CSc2sccc21	-0.298
CCN(CC)c1ccc(/C=C(/C#N)c2nc3ccccc3[nH]2)c(OC(C)C)c1	-2.51
CCCS(=O)(=O)N1CCCC(C(=O)NCCCN2CCN(c3ccccc3F)CC2)C1 (centres undefined)	0.0581
CC1CN(Cc2nc3c(c(=O)[nH]c(=O)n3C)n2CC(N)=O)CC(C)O1 (centres undefined)	0.852

SMILES	z-score
Cc1ccc(S(=O)(=O)NNC(=O)CCC(=O)Nc2ccc(C)c(C)c2)cc1	0.564
CCS(=O)(=O)c1nc(S(=O)(=O)c2ccc(Cl)cc2)c(NCc2ccco2)s1	-0.04
Cc1nnc(SCC(=O)NCC2CCCCC2)n(N)c1=O	0.443
COC(=O)c1cc(C#N)c(N(C)Cc2ccccc2)nc1C	-0.154
COC(=O)/C(N=Nc1c(C)n(C)n(-c2ccccc2)c1=O)=C(\C)O	-0.0353
Cc1onc(-c2ccccc2)c1C(=O)N1CCc2ccccc21	0.315
O=C(NC(=S)NCC1COc2ccccc2O1)c1ccccc1 (centres undefined)	active: 6.58
CCS(=O)(=O)c1ccc2c(c1)N(S(C)(=O)=O)CC(C(=O)NCc1ccccc1OC)O2 (centres undefined)	0.173
CCn1c(SCc2cccc(C)c2)nnc1-c1ccccc1	-0.431
N#Cc1c(/N=C/c2cccs2)sc2c1CCC2	0.483
O=C(NC(=S)Nc1nc2c(s1)CCCC2)c1ccc(C(=O)c2ccccc2)cc1	2.41
Cc1ccc(OCC(=O)NCCN2CCOCC2)cc1C	0.361
O=C(O)/C=C/C(=O)Nc1cccnc1	0.452
CCOC(=O)c1ccc(NC(=O)CSc2nc(SC)ns2)cc1	-0.278
Cc1ccc(C(=O)N2C3C=CC(C3)C2(C(F)(F)F)C(F)(F)F)cc1 (centres undefined)	-0.0848
Cn1c(=O)[nH]c(=O)c2c1nc(NC1CCCCC1)n2CC(=O)NC1CCCCC1	0.297
CCCc1cc(=O)oc2c(CN3CCOCC3)c(O)ccc12	-0.0963
COc1ccc(N(CC(=O)N2CCN(C)CC2)S(=O)(=O)c2ccccc2)cc1OC	0.644
O=C(c1cc(-c2ccccc2)on1)N1CCN(C(=O)c2ccco2)CC1	2.21
O=C1CC(C(=O)Nc2cccc3ccccc23)C2(CCCC2)O1 (centres undefined)	-0.404
CCc1cc(-c2n[nH]c(C)c2-c2nc3ccccc3n2C)c(O)c(CN2CCN(C)CC2)c1O	-2.1
NC(=O)C1CCN(C(c2ccccc2Cl)c2nnnn2Cc2ccc3c(c2)OCO3)CC1 (centres undefined)	-0.596
CCOc1ccccc1NC(=O)c1cc(C(=O)c2cc(OC)ccc2O)coc1=N	-0.44

SMILES	z-score
O=C1c2ccccc2C(=Nc2ccccc2)C1c1cccc(Br)c1 (centres undefined)	-0.25
Cc1cccc2c1N(CCCOc1ccc(C(C)(C)C)cc1)C(=O)C2=O	0.77
Cc1ccccc1C(=O)Oc1ccc(Br)cc1C(=S)N1CCCC1	-0.342
Cc1ccc(S(=O)(=O)N/N=C\c2ccc3c(c2)OCO3)cc1	0.157
COC(=O)/C=C/CSC1=N/C(=C/c2ccc(-n3cncn3)cc2)C(=O)N1	-0.0625
COc1ccc(C(=O)n2cnc(N)n2)cc1	0.0178
Clc1ccc(-c2nnc3n2CCCS3)cc1	0.105
CCN(CC)S(=O)(=O)c1ccc(NS(=O)(=O)c2ccc(F)cc2)cc1	0.169
Oc1cc(Cc2ccccc2)cnc1CN1CCCCC1	0.389
CN1C(=S)SC(/[N+]([O-])=C/c2cccnc2)C1(C)C (centres undefined)	-0.0373
COC(=O)c1ccc(C(=O)OCCCc2nc3ccc(N)cc3[nH]2)cc1	-0.207
CCOC(=O)c1c(NC(=O)CC)sc(C(C)=O)c1C	-0.51
Cc1cc(OCC(=O)NCCCN(C)C)cc(C)c1Br	1.86
CC(C)C(=O)NC(=S)Nc1ccc(S(=O)(=O)N(C)C)cc1	1.04
CCOc1cccc(-c2nn(-c3ccccc3)cc2/C=C(/C#N)C(=O)NCCCn2ccnc2)c1	-0.425
O=C(Nc1ccccc1N1CCOCC1)c1cc(-c2ccco2)nc2ccccc12	0.138
Cc1ccc(S(=O)(=O)c2ccccc2)cc1S(=O)(=O)N1CCOCC1	0.0214
Nc1nc(CSc2nc3ccccc3[nH]2)cs1	1.15
CCCSc1nnc(NC(=O)Nc2ccccc2)s1	-0.0887
CCOC(=O)c1cc(C(C)=O)c(=O)n(C)c1N	-0.198
CCc1cc(C(N)=O)c(NC(=O)c2ccc(OC)cc2)s1	active: 3.98
COc1ccc(C(=NNc2ccccc2C(=O)O)c2ccc(OC)cc2)cc1	0.0696
Cc1c(-n2cc(C(=O)c3cc(Br)ccc3O)cc(C#N)c2=O)c(=O)n(-c2ccccc2)n1C	-0.189

SMILES	z-score
CCCOc1ccc(Cc2nn3c(=O)/c(=C/c4ccco4)sc3nc2=O)cc1	0.00141
O=C(CN1C(=O)CCC1=O)Nc1nc2c(F)cc(F)cc2s1	0.55
Cc1cc(C)nc(NS(=O)(=O)c2ccc(NC(=O)NC3CCCCC3)cc2)n1	0.591
CCOC(=O)Cc1nnc(Nc2cccc(C)c2)c2ccccc12	-0.988
COCc1cc(C)nc(OCC(=O)N/N=C/c2cc(C)n(-c3c(C)cccc3C)c2C)c1C#N	-0.334
C=CCNC(=S)NNc1nc2c(c(=O)[nH]1)C1(CCCC1)Cc1ccccc1-2	-0.327
Cc1csc(NC(=O)CNC(=O)OCc2ccccc2)n1	0.00319
CSc1nc(Cl)cc(N(CCO)CCO)n1	-0.271
O=C(CCN1C(=O)COc2ccccc21)NCCCN1CCN(c2ccc(F)cc2)CC1	0.011
O=C(N/N=C/c1ccc(O)cc1)c1[nH]c2ccc(Br)cc2c1-c1ccccc1	-0.0753
CCn1c(C(=O)N2CCCC(C(=O)NCCCc3ccccc3)C2)cc2sccc21 (centres undefined)	-1.38
COCCNCCCCOc1c(Cl)cc(C)cc1Br	0.567
CN=C1SC(CC(=O)Nc2cc(Cl)ccc2Cl)C(=O)N1C (centres undefined)	-0.317
CCOC(=O)CSc1nc2ccccc2n1C(=O)OCC	-0.737
Cc1nnc(SCc2cnc(-c3ccccc3)o2)[nH]c1=O	-1.77
CCOC(=O)/C(C#N)=C/c1ccc(OCC(=O)Nc2cc(C)ccc2C)c(OC)c1	0.0362
CCOc1ncccc1C(=O)OCC(=O)c1ccc(Cl)s1	-0.0644
CCCn1c(-c2ccccc2)nc2c(=O)n(C)c(=O)[nH]c21	-0.967
CC(O)C1C(=O)OC2(C)CC(C)(C)NC(=S)N12 (centres undefined)	0.89
COc1ccc(NC(=O)CN2CCC(NC(=O)C3CCCCC3)CC2)cc1	-0.333
O=C(NCCNc1ccc([N+](=O)[O-])cc1C(F)(F)F)c1ccccc1F	-0.453
O=C(CSc1nc2ccccc2c(=O)n1NC(=O)Cc1ccccc1)NCc1ccccc1Cl	-0.256
